# Assay results reported in the supplement of paper PMC3334620.
# In all, about 33,000 sequences were measured (“E-score (-0.5 to 0.5)”: median about -0.016, highest 2% from about 0.32 on). This is one part of the list.
# Target: T1, Stp1 (UniProt B3LFK1)
# T1 sequence: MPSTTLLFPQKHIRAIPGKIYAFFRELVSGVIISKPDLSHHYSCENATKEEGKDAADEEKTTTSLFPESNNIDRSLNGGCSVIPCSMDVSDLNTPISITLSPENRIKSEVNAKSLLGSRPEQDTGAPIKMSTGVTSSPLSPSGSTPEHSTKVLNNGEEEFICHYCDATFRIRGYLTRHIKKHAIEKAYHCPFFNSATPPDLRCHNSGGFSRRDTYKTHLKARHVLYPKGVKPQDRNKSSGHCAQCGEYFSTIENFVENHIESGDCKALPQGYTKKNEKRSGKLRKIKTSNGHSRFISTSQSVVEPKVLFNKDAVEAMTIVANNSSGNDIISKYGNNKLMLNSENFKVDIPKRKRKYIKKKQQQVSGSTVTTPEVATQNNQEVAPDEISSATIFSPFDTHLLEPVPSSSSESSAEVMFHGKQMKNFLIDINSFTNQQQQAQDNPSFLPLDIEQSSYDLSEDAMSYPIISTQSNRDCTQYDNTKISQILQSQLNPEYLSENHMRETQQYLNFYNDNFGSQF
# Test: PBM E-score (8-mer binding enrichment) (E-score (-0.5 to 0.5)); higher = stronger / more preferred TF binding; most listed sequences are background and not binding sites
# Conditions: protein concentration: 200 nM; construct: GST-full length
# Experimental: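 Universal 'all 10-mer' protein binding microarrays (Agilent AMADID 015681) probed with GST-tagged S. cerevisiae TFs (full-length or DBD) made by in vitro transcription/translation (PURExpress), about 100-200 nM. Bound TF was detected with fluorescent anti-GST. Each ungapped 8-mer (which stands for itself and its reverse complement) is scored by the PBM enrichment score (E-score), a modified Wilcoxon-Mann-Whitney statistic from -0.5 to +0.5, computed with the Universal PBM Analysis Suite. Scale: above 0.35 generally sequence-specific binding.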
row,Sequence,PBM E-score
1,TCAAATCA,0.0147
2,CGAGTCTA,-0.269
3,AAAGGGTA,-0.0413
4,AAGCGCCC,0.0315
5,CCATCACA,-0.146
6,AACTGATG,0.141
7,CACGGATG,0.15
8,ATTGCCTG,0.0108
9,GAACATTA,-0.0121
10,AGGGCCTG,-0.411
11,AGCAACCA,0.0168
12,CGGTGACC,-0.219
13,AAATCGGC,0.194
14,AGTATTAG,0.102
15,CTGCCCGA,-0.119
16,AAAAACCT,0.00613
17,GGGTAAGA,-0.301
18,AACTCGCG,0.17
19,ACTAGTCC,-0.0744
20,CTAATACC,-0.0185
21,ATTAGTTG,0.195
22,GCCTACTA,0.16

row,Sequence,PBM E-score
1,AGGGGACC,-0.296
2,CGCTTTGA,0.00673
3,ATAATAAA,0.206
4,TACCATCA,-0.208
5,ACTCGGTC,-0.161
6,TAGACTCA,-0.152
7,ACGCTTAA,0.109
8,ACACCAGC,-0.171
9,GCGCAAGC,0.0713
10,ACCGGTAT,-0.197
11,CGACGTAA,0.0897
12,GTCCCCGA,-0.342
13,CGACTCAA,-0.124
14,ACTGCTAT,-0.00517
15,CACAGCAA,0.296
16,CGATTACA,0.0812
17,ATGCCAAA,0.0153
18,ATCCTGAA,0.179
19,AGACATCG,0.00868
20,AAGGTGGA,-0.173
21,AATGGCGC,0.253
22,CGGTAAAC,0.0601

row,Sequence,PBM E-score
1,CTGGGTGA,-0.229
2,GCAACGCA,-0.106
3,ATCGTAAA,0.161
4,GGCGTGTA,0.0932
5,ACGTAGCT,-0.0696
6,GCAGCGCC,0.33
7,ACTTTTTA,0.157
8,TGCCCTAA,-0.0334
9,AAGATAAC,0.0624
10,CGGTGTCC,-0.191
11,CTAAGTAC,0.0791
12,AAGAGGAC,-0.148
13,CACATCAC,-0.044
14,TCAGACGA,0.0806
15,AGCTGATA,0.0196
16,AAAAAGAC,0.0559
17,CGGGCCAA,-0.355
18,CACTAAGA,0.0987
19,ATAGCTCA,-0.0693
20,AACATAGT,0.0588
21,ATCCTGTC,0.0801
22,GCATAAAC,0.172

row,Sequence,PBM E-score
1,CGGTACTC,-0.096
2,ATGGTCCC,-0.3
3,GACATTGC,0.0112
4,ATATTTAA,0.248
5,CACCTTTC,-0.138
6,TCACCCGA,-0.121
7,AAGAGCGG,0.0636
8,AGAGCAAT,-0.0766
9,CGGGCCGA,-0.167
10,GGTTGTAA,0.0757
11,TCCTAGCA,-0.114
12,CCGAATGC,0.219
13,TTCAAGAA,0.146
14,AGGGAAGC,-0.202
15,TCGAGAAA,-0.00991
16,AGTCAGGA,-0.197
17,AGAAAAAG,0.0202
18,CTGCCAAG,-0.212
19,GAAGGCCC,-0.171
20,CCTTCCCG,-0.114
